# Laboratory results from the supplement of paper PMC8728848.
# The other results are listed elsewhere or left out.
# B1: Onconase (Rana pipiens), P22069 (protein)
# chain: QDWLTFQKKHITNTRDVDCDNIMSTNLFHCKDKNTFIYSRPEPVKAICKGIIASKNVLTTSEFYLSDCNVTSRPCKYKLKKSTNKFCVTCENQAPVHFVGVGSC
# Experiments:
# Assay in all cases: glycan array binding signal (z-score within array); higher = stronger binding
# Conditions in all cases: glycan notation: IUPAC condensed, linker removed
# [1] = target: Gal(a1-4)GlcNAc
# How it was run: (§1)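 Columns mapping to the same glycan were averaged after glycan names were converted to IUPAC-condensed notation. The data come from 3228 arrays in the Consortium for Functional Glycomics database, limited to those with an available protein sequence. Binding is reported as a within-array Z-score averaged across arrays of one protein sequence and across linkers.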
# [2] = target: Gal(a1-6)Glc
# How it was run: as §1
# [3] = target: Gal(b1-2)Gal
# How it was run: as §1
# [4] = target: Gal(b1-3)Gal
# How it was run: as §1
# [5] = target: Gal(b1-3)GalNAc
# How it was run: as §1
# [6] = target: Gal(b1-3)GalNAc(b1-3)Gal(a1-4)Gal(b1-4)Glc
# How it was run: as §1
# [7] = target: Gal(b1-3)GalNAc(b1-3)Gal(b1-4)Glc
# How it was run: as §1
# [8] = target: Gal(b1-3)GalNAc(b1-3)Gal(b1-4)GlcNAc
# How it was run: as §1
# [9] = target: Gal(b1-3)GalNAc(b1-4)Gal(b1-4)Glc
# How it was run: as §1
# [10] = target: Gal(b1-3)GalNAc(b1-4)[Neu5Ac(a2-3)]Gal(b1-4)Glc
# How it was run: as §1
# [11] = target: Gal(b1-3)[Fuc(a1-4)]GlcNAc
# How it was run: as §1
# [12] = target: Gal(b1-3)[Fuc(a1-4)]GlcNAc(b1-3)Gal(b1-4)GlcNAc
# How it was run: as §1
# [13] = target: Gal(b1-3)[Fuc(a1-4)]GlcNAc(b1-3)Gal(b1-4)[Fuc(a1-3)]GlcNAc
# How it was run: as §1
# [14] = target: Gal(b1-3)[GlcNAc(b1-6)]GalNAc
# How it was run: as §1
# [15] = target: Gal(b1-3)[GlcNAc(b1-6)]GlcNAc
# How it was run: as §1
# [16] = target: Gal(b1-3)[Neu5Ac(a2-6)]GalNAc
# How it was run: as §1
# [17] = target: Gal(b1-3)[Neu5Ac(a2-6)]GlcNAc
# How it was run: as §1
# [18] = target: Gal(b1-3)[Neu5Ac(a2-6)]GlcNAc(a1-4)Gal(b1-4)Glc
# How it was run: as §1
# [19] = target: Gal(b1-3)[Neu5Ac(b2-6)]GlcNAc
# How it was run: as §1
# [20] = target: Gal(b1-4)GalNAc(a1-3)[Fuc(a1-2)]Gal(b1-4)GlcNAc
# How it was run: as §1
# [21] = target: Gal(b1-4)GalNAc(b1-3)[Fuc(a1-2)]Gal(b1-4)GlcNAc
# How it was run: as §1
# [22] = target: Gal(b1-4)Glc
# How it was run: as §1
# [23] = target: Gal(b1-4)Glc6S
# How it was run: as §1
# [24] = target: Gal(b1-4)GlcNAc
# How it was run: as §1
# [25] = target: Gal(b1-4)GlcNAc(b1-2)Man(a1-3)[Gal(b1-4)GlcNAc(b1-2)Man(a1-6)]Man(b1-4)GlcNAc(b1-4)GlcNAc
# How it was run: as §1
# [26] = target: Gal(b1-4)GlcNAc(b1-3)Gal(b1-4)Glc
# How it was run: as §1
# [27] = target: Gal(b1-4)GlcNAc(b1-3)Gal(b1-4)GlcNAc
# How it was run: as §1
# [28] = target: Gal(b1-4)GlcNAc(b1-3)Gal(b1-4)GlcNAc(b1-3)Gal(b1-4)GlcNAc
# How it was run: as §1
# [29] = target: Gal(b1-4)GlcNAc(b1-3)Gal(b1-4)[Fuc(a1-3)]GlcNAc(b1-3)Gal(b1-4)[Fuc(a1-3)]GlcNAc
# How it was run: as §1
# [30] = target: Gal(b1-4)GlcNAc(b1-3)GalNAc
# How it was run: as §1
# [31] = target: Gal(b1-4)GlcNAc(b1-3)[Gal(b1-4)GlcNAc(b1-6)]GalNAc
# How it was run: as §1
# [32] = target: Gal(b1-4)GlcNAc(b1-6)GalNAc
# How it was run: as §1
# [33] = target: Gal(b1-4)GlcNAc(b1-6)[Gal(b1-3)]GalNAc
# How it was run: as §1
# [34] = target: Gal(b1-4)GlcNAc(b1-6)[Gal(b1-3)]GlcNAc
# How it was run: as §1
# [35] = target: Gal3S(b1-3)GalNAc
# How it was run: as §1
# [36] = target: Gal3S(b1-3)GlcNAc
# How it was run: as §1
# [37] = target: Gal3S(b1-3)[Fuc(a1-4)]GlcNAc
# How it was run: as §1
# [38] = target: Gal3S(b1-4)Glc
# How it was run: as §1
# [39] = target: Gal3S(b1-4)Glc6S
# How it was run: as §1
# [40] = target: Gal3S(b1-4)GlcNAc
# How it was run: as §1
# [41] = target: Gal3S(b1-4)GlcNAc6S
# How it was run: as §1
# [42] = target: Gal3S6S(b1-4)GlcNAc
# How it was run: as §1
# [43] = target: Gal3S6S(b1-4)GlcNAc6S
# How it was run: as §1
# [44] = target: Gal4S(b1-4)GlcNAc
# How it was run: as §1
# [45] = target: Gal4S6S(b1-4)GlcNAc
# How it was run: as §1
binder,measurement,setting,value
B1,glycan array binding signal (z-score),[1],-0.82
same,glycan array binding signal (z-score),[2],-0.497
same,glycan array binding signal (z-score),[3],2.63
same,glycan array binding signal (z-score),[4],1.65
same,glycan array binding signal (z-score),[5],-0.083
same,glycan array binding signal (z-score),[6],-0.205
same,glycan array binding signal (z-score),[7],0.278
same,glycan array binding signal (z-score),[8],0.641
same,glycan array binding signal (z-score),[9],-0.145
same,glycan array binding signal (z-score),[10],0.759
same,glycan array binding signal (z-score),[11],-0.553
same,glycan array binding signal (z-score),[12],0.52
same,glycan array binding signal (z-score),[13],0.498
same,glycan array binding signal (z-score),[14],-1.22
same,glycan array binding signal (z-score),[15],-0.723
same,glycan array binding signal (z-score),[16],-2.03
same,glycan array binding signal (z-score),[17],0.353
same,glycan array binding signal (z-score),[18],0.649
same,glycan array binding signal (z-score),[19],-0.65
same,glycan array binding signal (z-score),[20],0.045
same,glycan array binding signal (z-score),[21],-0.254
same,glycan array binding signal (z-score),[22],-0.134
same,glycan array binding signal (z-score),[23],0.125
same,glycan array binding signal (z-score),[24],-0.451
same,glycan array binding signal (z-score),[25],1.78
same,glycan array binding signal (z-score),[26],0.071
same,glycan array binding signal (z-score),[27],-0.453
same,glycan array binding signal (z-score),[28],-0.608
same,glycan array binding signal (z-score),[29],2.54
same,glycan array binding signal (z-score),[30],0.904
same,glycan array binding signal (z-score),[31],-0.818
same,glycan array binding signal (z-score),[32],-0.359
same,glycan array binding signal (z-score),[33],-2.24
same,glycan array binding signal (z-score),[34],-0.723
same,glycan array binding signal (z-score),[35],1.43
same,glycan array binding signal (z-score),[36],1.01
same,glycan array binding signal (z-score),[37],0.272
same,glycan array binding signal (z-score),[38],-0.458
same,glycan array binding signal (z-score),[39],-0.281
same,glycan array binding signal (z-score),[40],-0.393
same,glycan array binding signal (z-score),[41],0.743
same,glycan array binding signal (z-score),[42],0.119
same,glycan array binding signal (z-score),[43],0.447
same,glycan array binding signal (z-score),[44],-0.516
same,glycan array binding signal (z-score),[45],1.1
